# The list shows a part of the results.
# B1: CFEM-CGl (Candida glabrata), Q6FRS0 (protein)
# chain: VLATPPACLLACVAQVSKQSSQCHTLNQVGCFCENENTAIKNCLDSICPNGNSDAAYTAFKNSCGDVGKAVASV
# How the values were obtained:
# Experiment in all cases: glycan array binding signal (z-score within array); higher = stronger binding
# Settings in all cases: glycan notation: IUPAC condensed, linker removed
# [1] = molecular target: Fuc(a1-2)[Gal(a1-3)]Gal(b1-4)GlcNAc(b1-2)Man(a1-3)[Fuc(a1-2)[Gal(a1-3)]Gal(b1-4)GlcNAc(b1-2)Man(a1-6)]Man(b1-4)GlcNAc(b1-4)GlcNAc
# Method in brief: (§1)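 The binding signal is a Z-score computed within each array. Data were drawn from 3228 arrays in the Consortium for Functional Glycomics database, restricted to those with a known protein sequence. Scores were averaged over arrays of the same protein sequence at different concentrations or buffers, and over linkers, and negative values can be taken as non-binding.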
# [2] = molecular target: Fuc(a1-2)[Gal(a1-3)]Gal(b1-4)GlcNAc(b1-2)Man(a1-3)[Fuc(a1-2)[Gal(a1-3)]Gal(b1-4)GlcNAc(b1-2)Man(a1-6)]Man(b1-4)GlcNAc(b1-4)[Fuc(a1-6)]GlcNAc
# Method in brief: as §1
# [3] = molecular target: Fuc(a1-2)[Gal(a1-3)]Gal(b1-4)GlcNAc(b1-3)GalNAc
# Method in brief: as §1
# [4] = molecular target: Fuc(a1-2)[Gal(a1-3)]Gal(b1-4)GlcNAc(b1-3)[Fuc(a1-2)[Gal(a1-3)]Gal(b1-4)GlcNAc(b1-6)]GalNAc
# Method in brief: as §1
# [5] = molecular target: Fuc(a1-2)[Gal(a1-3)]Gal(b1-4)GlcNAc(b1-6)GalNAc
# Method in brief: as §1
# [6] = molecular target: Fuc(a1-2)[Gal(a1-3)]Gal(b1-4)[Fuc(a1-3)]Glc
# Method in brief: as §1
# [7] = molecular target: Fuc(a1-2)[Gal(a1-3)]Gal(b1-4)[Fuc(a1-3)]GlcNAc
# Method in brief: as §1
# [8] = molecular target: Fuc(a1-2)[Gal(a1-3)]Gal(b1-4)[Fuc(a1-3)]GlcNAc(b1-3)GalNAc
# Method in brief: as §1
# [9] = molecular target: Fuc(a1-2)[Gal(a1-4)]Gal(b1-4)GlcNAc
# Method in brief: as §1
# [10] = molecular target: Fuc(a1-2)[GalNAc(a1-3)]Gal
# Method in brief: as §1
# [11] = molecular target: Fuc(a1-2)[GalNAc(a1-3)]Gal(b1-3)GalNAc(a1-3)[Fuc(a1-2)]Gal(b1-4)GlcNAc
# Method in brief: as §1
# [12] = molecular target: Fuc(a1-2)[GalNAc(a1-3)]Gal(b1-3)GalNAc(b1-3)Gal(a1-4)Gal(b1-4)Glc
# Method in brief: as §1
# [13] = molecular target: Fuc(a1-2)[GalNAc(a1-3)]Gal(b1-3)GlcNAc
# Method in brief: as §1
# [14] = molecular target: Fuc(a1-2)[GalNAc(a1-3)]Gal(b1-3)GlcNAc(b1-2)Man(a1-3)[Fuc(a1-2)[GalNAc(a1-3)]Gal(b1-3)GlcNAc(b1-2)Man(a1-6)]Man(b1-4)GlcNAc(b1-4)GlcNAc
# Method in brief: as §1
# [15] = molecular target: Fuc(a1-2)[GalNAc(a1-3)]Gal(b1-3)GlcNAc(b1-2)Man(a1-3)[Fuc(a1-2)[GalNAc(a1-3)]Gal(b1-3)GlcNAc(b1-2)Man(a1-6)]Man(b1-4)GlcNAc(b1-4)[Fuc(a1-6)]GlcNAc
# Method in brief: as §1
# [16] = molecular target: Fuc(a1-2)[GalNAc(a1-3)]Gal(b1-3)GlcNAc(b1-3)GalNAc
# Method in brief: as §1
# [17] = molecular target: Fuc(a1-2)[GalNAc(a1-3)]Gal(b1-3)GlcNAc(b1-6)GalNAc
# Method in brief: as §1
# [18] = molecular target: Fuc(a1-2)[GalNAc(a1-3)]Gal(b1-4)Glc
# Method in brief: as §1
# [19] = molecular target: Fuc(a1-2)[GalNAc(a1-3)]Gal(b1-4)GlcNAc
# Method in brief: as §1
# [20] = molecular target: Fuc(a1-2)[GalNAc(a1-3)]Gal(b1-4)GlcNAc(b1-2)Man
# Method in brief: as §1
# [21] = molecular target: Fuc(a1-2)[GalNAc(a1-3)]Gal(b1-4)GlcNAc(b1-2)Man(a1-3)[Fuc(a1-2)[GalNAc(a1-3)]Gal(b1-4)GlcNAc(b1-2)Man(a1-6)]Man(b1-4)GlcNAc(b1-4)GlcNAc
# Method in brief: as §1
# [22] = molecular target: Fuc(a1-2)[GalNAc(a1-3)]Gal(b1-4)GlcNAc(b1-2)Man(a1-3)[Fuc(a1-2)[GalNAc(a1-3)]Gal(b1-4)GlcNAc(b1-2)Man(a1-6)]Man(b1-4)GlcNAc(b1-4)[Fuc(a1-6)]GlcNAc
# Method in brief: as §1
# [23] = molecular target: Fuc(a1-2)[GalNAc(a1-3)]Gal(b1-4)GlcNAc(b1-3)Gal(b1-4)GlcNAc
# Method in brief: as §1
# [24] = molecular target: Fuc(a1-2)[GalNAc(a1-3)]Gal(b1-4)GlcNAc(b1-3)Gal(b1-4)GlcNAc(b1-3)Gal(b1-4)GlcNAc
# Method in brief: as §1
# [25] = molecular target: Fuc(a1-2)[GalNAc(a1-3)]Gal(b1-4)GlcNAc(b1-3)GalNAc
# Method in brief: as §1
# [26] = molecular target: Fuc(a1-2)[GalNAc(a1-3)]Gal(b1-4)GlcNAc(b1-3)[Fuc(a1-2)[GalNAc(a1-3)]Gal(b1-4)GlcNAc(b1-6)]GalNAc
# Method in brief: as §1
# [27] = molecular target: Fuc(a1-2)[GalNAc(a1-3)]Gal(b1-4)GlcNAc(b1-6)GalNAc
# Method in brief: as §1
# [28] = molecular target: Fuc(a1-2)[GalNAc(a1-3)]Gal(b1-4)[Fuc(a1-3)]GlcNAc
# Method in brief: as §1
# [29] = molecular target: Fuc(a1-2)[GalNAc(a1-3)]Gal(b1-4)[Fuc(a1-3)]GlcNAc(b1-3)GalNAc
# Method in brief: as §1
# [30] = molecular target: Fuc(a1-2)[GalNAc(a1-4)]Gal(b1-4)GlcNAc
# Method in brief: as §1
# [31] = molecular target: Fuc(a1-2)[GalNAc(b1-3)]Gal
# Method in brief: as §1
# [32] = molecular target: Fuc(a1-3)GlcNAc
# Method in brief: as §1
# [33] = molecular target: Fuc(a1-3)[Gal(b1-4)]Glc6S
# Method in brief: as §1
# [34] = molecular target: Fuc(a1-3)[Gal(b1-4)]GlcNAc
# Method in brief: as §1
# [35] = molecular target: Fuc(a1-3)[Gal(b1-4)]GlcNAc(b1-2)Man
# Method in brief: as §1
# [36] = molecular target: Fuc(a1-3)[Gal(b1-4)]GlcNAc(b1-2)Man(a1-3)[Fuc(a1-3)[Gal(b1-4)]GlcNAc(b1-2)Man(a1-6)]Man(b1-4)GlcNAc(b1-4)GlcNAc
# Method in brief: as §1
# [37] = molecular target: Fuc(a1-3)[Gal(b1-4)]GlcNAc(b1-2)Man(a1-3)[Fuc(a1-3)[Gal(b1-4)]GlcNAc(b1-2)Man(a1-6)]Man(b1-4)GlcNAc(b1-4)[Fuc(a1-6)]GlcNAc
# Method in brief: as §1
# [38] = molecular target: Fuc(a1-3)[Gal(b1-4)]GlcNAc(b1-3)Gal(b1-3)[Fuc(a1-4)]GlcNAc
# Method in brief: as §1
# [39] = molecular target: Fuc(a1-3)[Gal(b1-4)]GlcNAc(b1-3)Gal(b1-4)[Fuc(a1-3)]GlcNAc
# Method in brief: as §1
# [40] = molecular target: Fuc(a1-3)[Gal(b1-4)]GlcNAc(b1-3)Gal(b1-4)[Fuc(a1-3)]GlcNAc(b1-3)Gal(b1-4)[Fuc(a1-3)]GlcNAc
# Method in brief: as §1
# [41] = molecular target: Fuc(a1-3)[Gal(b1-4)]GlcNAc(b1-3)GalNAc
# Method in brief: as §1
# [42] = molecular target: Fuc(a1-3)[Gal(b1-4)]GlcNAc(b1-6)GalNAc
# Method in brief: as §1
# [43] = molecular target: Fuc(a1-3)[Gal(b1-4)]GlcNAc(b1-6)[Gal(b1-3)GlcNAc(b1-3)]Gal(b1-4)Glc
# Method in brief: as §1
# [44] = molecular target: Fuc(a1-3)[Gal(b1-4)]GlcNAc6S
# Method in brief: as §1
# [45] = molecular target: Fuc(a1-3)[Gal3S(b1-4)]Glc
# Method in brief: as §1
binder,measurement,setting,value
B1,glycan array binding signal (z-score),[1],-0.396
same,glycan array binding signal (z-score),[2],-0.191
same,glycan array binding signal (z-score),[3],-0.562
same,glycan array binding signal (z-score),[4],0.176
same,glycan array binding signal (z-score),[5],-0.207
same,glycan array binding signal (z-score),[6],-0.097
same,glycan array binding signal (z-score),[7],0.286
same,glycan array binding signal (z-score),[8],0.07
same,glycan array binding signal (z-score),[9],0.444
same,glycan array binding signal (z-score),[10],-0.505
same,glycan array binding signal (z-score),[11],-0.609
same,glycan array binding signal (z-score),[12],-0.428
same,glycan array binding signal (z-score),[13],-0.375
same,glycan array binding signal (z-score),[14],-0.014
same,glycan array binding signal (z-score),[15],-0.63
same,glycan array binding signal (z-score),[16],1.38
same,glycan array binding signal (z-score),[17],-0.71
same,glycan array binding signal (z-score),[18],-0.39
same,glycan array binding signal (z-score),[19],-0.224
same,glycan array binding signal (z-score),[20],-0.418
same,glycan array binding signal (z-score),[21],-0.562
same,glycan array binding signal (z-score),[22],-0.183
same,glycan array binding signal (z-score),[23],-0.405
same,glycan array binding signal (z-score),[24],-0.435
same,glycan array binding signal (z-score),[25],-0.544
same,glycan array binding signal (z-score),[26],-0.394
same,glycan array binding signal (z-score),[27],0.049
same,glycan array binding signal (z-score),[28],0.362
same,glycan array binding signal (z-score),[29],4.55
same,glycan array binding signal (z-score),[30],-0.366
same,glycan array binding signal (z-score),[31],-0.399
same,glycan array binding signal (z-score),[32],-0.338
same,glycan array binding signal (z-score),[33],0.385
same,glycan array binding signal (z-score),[34],-0.26
same,glycan array binding signal (z-score),[35],0.39
same,glycan array binding signal (z-score),[36],0.641
same,glycan array binding signal (z-score),[37],-0.347
same,glycan array binding signal (z-score),[38],-0.484
same,glycan array binding signal (z-score),[39],-0.095
same,glycan array binding signal (z-score),[40],-0.405
same,glycan array binding signal (z-score),[41],1.07
same,glycan array binding signal (z-score),[42],1.66
same,glycan array binding signal (z-score),[43],-0.421
same,glycan array binding signal (z-score),[44],0.162
same,glycan array binding signal (z-score),[45],-0.009

# — the supplement of paper PMC8728848
